Assay results published in article PMC9569496.
No constants are given. Whether binding was seen depends on the method and setting. Binding seen in cells or lysates may run through a third protein. Some binding calls cover weakened binding; strength is not graded here.

Chains of the proteins cited; added tags and fusions are not shown.
UniProt P51946: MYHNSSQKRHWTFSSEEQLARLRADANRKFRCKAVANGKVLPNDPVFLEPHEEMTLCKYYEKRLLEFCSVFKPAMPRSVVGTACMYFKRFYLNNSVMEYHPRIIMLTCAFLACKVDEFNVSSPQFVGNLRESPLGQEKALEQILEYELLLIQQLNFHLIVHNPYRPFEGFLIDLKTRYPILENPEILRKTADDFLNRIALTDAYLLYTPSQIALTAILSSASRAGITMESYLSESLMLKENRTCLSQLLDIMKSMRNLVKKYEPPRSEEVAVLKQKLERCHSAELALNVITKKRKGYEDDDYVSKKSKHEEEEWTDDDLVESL
UniProt O60563: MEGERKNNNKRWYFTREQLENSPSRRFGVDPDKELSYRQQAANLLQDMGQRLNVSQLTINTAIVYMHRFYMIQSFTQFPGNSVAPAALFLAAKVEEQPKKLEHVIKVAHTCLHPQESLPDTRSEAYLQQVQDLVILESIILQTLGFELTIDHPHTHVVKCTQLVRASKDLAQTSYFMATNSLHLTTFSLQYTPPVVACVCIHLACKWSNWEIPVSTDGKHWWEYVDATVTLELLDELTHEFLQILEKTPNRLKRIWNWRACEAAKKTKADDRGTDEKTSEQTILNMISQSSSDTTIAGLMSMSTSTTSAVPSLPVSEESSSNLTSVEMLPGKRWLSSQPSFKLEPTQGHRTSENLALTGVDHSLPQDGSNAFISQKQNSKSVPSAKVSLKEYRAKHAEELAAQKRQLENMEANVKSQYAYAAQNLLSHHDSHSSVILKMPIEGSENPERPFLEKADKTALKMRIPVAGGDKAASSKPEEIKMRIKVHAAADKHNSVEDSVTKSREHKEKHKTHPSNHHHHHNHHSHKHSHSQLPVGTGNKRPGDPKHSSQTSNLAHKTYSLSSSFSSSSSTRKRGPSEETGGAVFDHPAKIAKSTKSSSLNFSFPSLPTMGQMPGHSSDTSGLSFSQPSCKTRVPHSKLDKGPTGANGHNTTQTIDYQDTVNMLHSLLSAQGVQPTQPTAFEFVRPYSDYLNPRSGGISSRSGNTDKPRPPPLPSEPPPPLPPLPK

What was measured:
[1] = target: human cyclin H (human (endogenous in HFFs)) (UniProt P51946); experiment: co-IP; HFFs in T175 flasks infected with HCMV AD169 WT or ORF-UL97 deletion mutants, lysed 4 d.p.i.; cyclins H and T1 immunoprecipitated with specific antibodies, pUL97 detected by Western blot; chicken Fc fragment as negative control
[2] = target: human cyclin T1 (human (endogenous in HFFs)) (UniProt O60563); experiment: as above
[3] = target: human cyclin T1 (human (endogenous in HFFs)) (UniProt O60563); experiment: co-IP; HFFs in T75 flasks infected with HCMV AD169 WT or UL97 point mutants, harvested 4-7 d.p.i.; cyclins T1, H, B1 immunoprecipitated with specific antibodies, pUL97 detected by Western blot; chicken Fc fragment as specificity control

Substance | binding [1] | binding [2] | binding [3]
HCMV pUL97 Δ231-280 (AD169-GFP ORF-UL97 deletion mutant) (from UniProt P16788 1-707) (enzyme) | no binding | no binding | –
HCMV pUL97 Δ236-275 (AD169-GFP ORF-UL97 deletion mutant) (from UniProt P16788 1-707) (enzyme) | no binding | no binding | –
HCMV pUL97 Δ241-270 (AD169-GFP ORF-UL97 deletion mutant) (from UniProt P16788 1-707) (enzyme) | binds | binds | –
HCMV pUL97 Δ246-265 (AD169-GFP ORF-UL97 deletion mutant) (from UniProt P16788 1-707) (enzyme) | binds | binds | –
HCMV pUL97 Δ251-260 (AD169-GFP ORF-UL97 deletion mutant) (from UniProt P16788 1-707) (enzyme) | binds | binds | –
HCMV protein kinase pUL97, strain AD169 wild type (from UniProt P16788 1-707) (enzyme) | – | binds | binds
